# Measured values reported in the supplement of paper PMC10126150.
# Sequences with one replicate were seen in a single cluster, so their values are uncertain.
# Test system: ATP
# Assay: switch fluorescence ratio, 500 uM ATP over buffer (Cy3 cluster intensity, sum of 5 cycles each) (fold (ratio)); higher = stronger signal-on switching upon ATP binding; sequences stand for … in TCGTCGGCAGCGTCAGATGTGTATAAGAGACAGTTTTTTTTTTTTTTTTTTTTTTTTT…TC
# Details: aptamer strand: ATP DNA aptamer (quencher-CACCTGGGGGAGTATTGCGGAGGAAGG + anchor), 100 nM annealed; ATP concentration: 500 uM; one replicate
# In short: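 After annealing to 100 nM quencher-labelled ATP aptamer, Cy3-labelled switching-strand clusters on a modified Illumina MiSeq flow-cell were imaged in selection buffer. A second image followed after 15 min with 500 uM ATP at 22 °C, and five such buffer/ATP cycles were done, each separated by NaOH stripping and re-annealing. The fluorescence ratio, averaged per switch-domain sequence, is summed target-cycle over summed buffer-cycle Cy3 intensity per cluster, with clusters outside 100-1000 RFU excluded.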
# 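Further: ATP exposure 15 min at 22 °C before imaging.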
row,Sequence,switch fluorescence ratio
1,AGAGGCTAGC,0.899
2,AGAGGGGGA,0.987
3,AGAGGTAATC,1.02
4,AGAGGTATTC,1.01
5,AGAGGTGGCA,0.986
6,AGAGGTTAAT,1.04
7,AGAGTAAAAG,0.992
8,AGAGTAGTGG,0.968
9,AGAGTGATTT,0.987
10,AGAGTGCGAG,0.996
11,AGAGTGGAT,0.952
12,AGAGTGGATT,0.985
13,AGAGTTCGGG,0.997
14,AGAGTTGGGC,1.06
15,AGATAAAGTC,1.01
16,AGATAAGCCG,1.04
17,AGATAAGGGC,1.05
18,AGATACGTGG,0.978
19,AGATACTGGT,1.03
20,AGATAGAACG,1.01
21,AGATAGAATA,0.915
22,AGATAGGAGG,0.933
23,AGATATATGG,0.976
24,AGATATCAGT,0.999
25,AGATATCATA,0.98
26,AGATCAAATG,1.01

row,Sequence,switch fluorescence ratio
1,AGATCACCGT,0.996
2,AGATCACGGC,0.988
3,AGATCATACT,0.994
4,AGATCCCACG,1.06
5,AGATCGCGT,1.02
6,AGATCGGACA,1.03
7,AGATCGTGTA,1.04
8,AGATCTTATG,0.987
9,AGATCTTTCG,1
10,AGATGCAAAT,1.04
11,AGATGGATTC,0.996
12,AGATGGCAGA,0.975
13,AGATGGCGGA,0.974
14,AGATGGGTCT,0.98
15,AGATGGTTGA,1.01
16,AGATGTCCGC,1.17
17,AGATGTGCAG,1.04
18,AGATGTTGG,0.985
19,AGATTAGGA,1
20,AGATTCATGG,0.979
21,AGATTCCAGA,0.962
22,AGATTCTCTA,0.969
23,AGATTCTTGA,0.9
24,AGATTGATA,0.988
25,AGATTGCTG,1
26,AGATTTGGAC,1.02

row,Sequence,switch fluorescence ratio
1,AGATTTTAAC,0.994
2,AGCAAAAGTT,1.01
3,AGCAAAGCAT,1.03
4,AGCAAATCCC,1.82
5,AGCAACCGAT,1.14
6,AGCAATCCT,4.02
7,AGCAATGTCG,1.14
8,AGCAATTGGC,1.3
9,AGCACAAGGG,1.01
10,AGCACCGCAT,1.36
11,AGCACGACTG,0.987
12,AGCACTCGTA,1.01
13,AGCAGAATAC,4.48
14,AGCAGCGCCC,1.04
15,AGCAGTACCG,1.1
16,AGCATAACTA,1.05
17,AGCATCCACT,1.11
18,AGCATTGATT,0.988
19,AGCATTTCAG,1
20,AGCCAATCCA,1
21,AGCCATTGAT,0.957
22,AGCCCCAGT,1.01
23,AGCCCGGAC,1.09
24,AGCCCGTGTC,1.03
25,AGCCGACGTG,1.02
26,AGCCGATTTG,1.04

row,Sequence,switch fluorescence ratio
1,AGCCGCCTGT,1.05
2,AGCCGCGTTT,1.02
3,AGCCGGATAA,1.01
4,AGCCGGCATG,0.991
5,AGCCGGCGAT,1.01
6,AGCCGGCTA,0.996
7,AGCCGGCTAT,1
8,AGCCGGGGCC,0.978
9,AGCCGGTCTA,0.968
10,AGCCTACATG,0.97
11,AGCCTACCAA,1.47
12,AGCCTCGGGC,1.02
13,AGCCTTCTTT,1.08
14,AGCGAACGAC,1.66
15,AGCGAATTTC,1.85
16,AGCGACGACT,0.992
17,AGCGACGGGT,1.01
18,AGCGACTTGA,0.982
19,AGCGAGGCTG,0.992
20,AGCGATGTAT,1.01
21,AGCGATTGTG,0.953
22,AGCGCAGTTC,1.55
23,AGCGCATTTC,2.13
24,AGCGCCGTAG,1.02
25,AGCGCCTCTA,0.958
26,AGCGCGACCG,1.02

row,Sequence,switch fluorescence ratio
1,AGCGCGATTG,1.03
2,AGCGCGGTAG,1.05
3,AGCGCTTCC,1.62
4,AGCGGAACTA,0.997
5,AGCGGAGGA,0.999
6,AGCGGAGTTG,0.972
7,AGCGGCGACG,0.93
8,AGCGGGAAAT,1.01
9,AGCGTAAAAA,0.97
10,AGCGTAAACC,1.07
11,AGCGTCGACC,0.992
12,AGCGTCGAGA,0.962
13,AGCGTTAAAA,0.961
14,AGCGTTGCTG,0.997
15,AGCGTTTGAG,1.01
16,AGCTAATAAC,1.24
17,AGCTAATAGG,0.977
18,AGCTACGATC,1.11
19,AGCTACGTGA,1.13
20,AGCTCAATCT,0.994
21,AGCTCAATTT,0.986
22,AGCTCAGTTA,0.999
23,AGCTCATCGA,0.994
24,AGCTCATCGG,0.981
25,AGCTCCACGT,1.14
26,AGCTCCGGAT,1.12

row,Sequence,switch fluorescence ratio
1,AGCTCCGGTT,1.07
2,AGCTCGACTG,1.01
3,AGCTCGCTAG,1.05
4,AGCTCGGATT,0.994
5,AGCTCGTATA,1.02
6,AGCTCTACAA,1.12
7,AGCTGACCTA,1.03
8,AGCTGACTTA,1.05
9,AGCTGAGTAT,1.03
10,AGCTGCAGGT,1.01
11,AGCTGCCCAT,0.942
12,AGCTGCGGTC,1.02
13,AGCTGGGGT,1.05
14,AGCTGGTCAC,0.992
15,AGCTGTTGAC,1.02
16,AGCTGTTGCG,0.982
17,AGCTGTTTCC,1.01
18,AGCTTAAGAT,0.987
19,AGCTTAGACG,0.971
20,AGCTTAGAGT,1
21,AGCTTATCTT,1
22,AGCTTCTA,1.03
23,AGCTTGGCCT,1
